The other results are listed elsewhere or left out.
B1: PhoQ; a variant is named by its letters at X, in order, P23837 (parent)
chain: MKKLLRLFFPLSLRVRFLLATAAVVLVLSLAYGMVALIGYSVSFDKTTFRLLRGESNLFYTLAKWENNKLHVELPENIDKQSPTMTLIYDENGQLLWAQRDVPWLMKMIQPDWLKSNGFHEIEADVNDTSLLLSGDHSIQQQLQEVREDDDDAEMTHSVAVNVYPATSRMPKLTIVVVDTIPVELKSSYMVWSWFIYVLSANLLLVIPLLWVAAWWSLRPIEALAKEVRELEEHNRELLNPATTRELTSLVRNLNRLLKSERERYDKYRTTLTDLTHSLKTPLXXLQXXLRSLRSEKMSVSDAEPVMLEQISRISQQIGYYLHRASMRGGTLLSRELHPVAPLLDNLTSALNKVYQRKGVNISLDISPEISFVGEQNDFVEVMGNVLDNACKYCLEFVEISARQTDEHLYIVVEDDGPGIPLSKREVIFDRGQRVDTLRPGQGVGLAVAREITEQYEGKIVAGESMLGGARMEVIFGRQHSAPKDE

Variants of: B1
Assay: enrichment ratio after two sorts for PhoP signalling (ratio (wild type AVST 3.29)); higher = more functional
Details: with PhoP (E. coli)

Going from VGMI to DRNH, the enrichment ratio falls from 20.4 to no more than 0.25.

VMHN and KMEF cannot be ordered by enrichment ratio: no more than 0.25 for the first, no more than 0.25 for the second.

First: DVNI
Second: FGMG
The enrichment ratio of the first is lower: no more than 0.25 for the first, 0.824 for the second.

QKPA and KCRD cannot be ordered by enrichment ratio: no more than 0.25 for the first, no more than 0.25 for the second.

LQEA and LDRV cannot be ordered by enrichment ratio: no more than 0.25 for the first, no more than 0.25 for the second.

WKIC and GWNH cannot be ordered by enrichment ratio: no more than 0.25 for the first, no more than 0.25 for the second.

Going from LFLM to MLSL, the enrichment ratio rises from 0.825 to 7.3.

FTAP and PYKI cannot be ordered by enrichment ratio: no more than 0.25 for the first, no more than 0.25 for the second.

HFAN and TLYH cannot be ordered by enrichment ratio: no more than 0.25 for the first, no more than 0.25 for the second.

MIIQ and INHI cannot be ordered by enrichment ratio: no more than 0.25 for the first, no more than 0.25 for the second.

NQKY and LPRW cannot be ordered by enrichment ratio: no more than 0.25 for the first, no more than 0.25 for the second.

Compared with LTCN, YVLL is higher in enrichment ratio: no more than 0.25 for the first, 5.22 for the second.

DIWA and DCFL cannot be ordered by enrichment ratio: no more than 0.25 for the first, no more than 0.25 for the second.

LQKW and AYPN cannot be ordered by enrichment ratio: no more than 0.25 for the first, no more than 0.25 for the second.

RDLG and LEPC cannot be ordered by enrichment ratio: no more than 0.25 for the first, no more than 0.25 for the second.

LLPG and WLPI cannot be ordered by enrichment ratio: no more than 0.25 for the first, no more than 0.25 for the second.

NQES and LMWY cannot be ordered by enrichment ratio: no more than 0.25 for the first, no more than 0.25 for the second.

IYMV and QHLC cannot be ordered by enrichment ratio: no more than 0.25 for the first, no more than 0.25 for the second.

First: YDVI
Second: SGQL
The enrichment ratio of the first is lower: no more than 0.25 for the first, 12 for the second.

First: HKCL
Second: LSKI
The enrichment ratio of the first is higher: 3.32 for the first, no more than 0.25 for the second.

First: SKVM
Second: FVMY
The enrichment ratio of the first is higher: 19.7 for the first, no more than 0.25 for the second.

FPRE and LQAF cannot be ordered by enrichment ratio: no more than 0.25 for the first, no more than 0.25 for the second.

YYWC and IITN cannot be ordered by enrichment ratio: no more than 0.25 for the first, no more than 0.25 for the second.

Going from IMRK to AISE, the enrichment ratio rises from no more than 0.25 to 2.44.

Compared with DLMF, VAMV is higher in enrichment ratio: no more than 0.25 for the first, 3.25 for the second.

HSTW and GAHF cannot be ordered by enrichment ratio: no more than 0.25 for the first, no more than 0.25 for the second.

TLIK and GNSN cannot be ordered by enrichment ratio: no more than 0.25 for the first, no more than 0.25 for the second.

PHQM and ISSP cannot be ordered by enrichment ratio: no more than 0.25 for the first, no more than 0.25 for the second.

PFYK and WGYC cannot be ordered by enrichment ratio: no more than 0.25 for the first, no more than 0.25 for the second.

RITF and WFFG cannot be ordered by enrichment ratio: no more than 0.25 for the first, no more than 0.25 for the second.

PACH and SRCR cannot be ordered by enrichment ratio: no more than 0.25 for the first, no more than 0.25 for the second.

Going from QQYV to AMCF, the enrichment ratio rises from no more than 0.25 to 12.3.

FGWD and QQEP cannot be ordered by enrichment ratio: no more than 0.25 for the first, no more than 0.25 for the second.

IYTF and DQEC cannot be ordered by enrichment ratio: no more than 0.25 for the first, no more than 0.25 for the second.

DGRQ and ERCY cannot be ordered by enrichment ratio: no more than 0.25 for the first, no more than 0.25 for the second.

THRV and DELF cannot be ordered by enrichment ratio: no more than 0.25 for the first, no more than 0.25 for the second.

WDAH and QEAW cannot be ordered by enrichment ratio: no more than 0.25 for the first, no more than 0.25 for the second.

VHYH and HSLN cannot be ordered by enrichment ratio: no more than 0.25 for the first, no more than 0.25 for the second.

Going from LAFA to STLY, the enrichment ratio rises from no more than 0.25 to 13.1.

Compared with TINC, ISAR is lower in enrichment ratio: 5.07 for the first, no more than 0.25 for the second.

MADK and PDMG cannot be ordered by enrichment ratio: no more than 0.25 for the first, no more than 0.25 for the second.

DEAI and FNEN cannot be ordered by enrichment ratio: no more than 0.25 for the first, no more than 0.25 for the second.

GMGE and FPHT cannot be ordered by enrichment ratio: no more than 0.25 for the first, no more than 0.25 for the second.

NFCD and DTPQ cannot be ordered by enrichment ratio: no more than 0.25 for the first, no more than 0.25 for the second.

MNST and PCAG cannot be ordered by enrichment ratio: no more than 0.25 for the first, no more than 0.25 for the second.

YYWV and MEGD cannot be ordered by enrichment ratio: no more than 0.25 for the first, no more than 0.25 for the second.

AAYY and CMIL cannot be ordered by enrichment ratio: no more than 0.25 for the first, no more than 0.25 for the second.

FRNI and MPFC cannot be ordered by enrichment ratio: no more than 0.25 for the first, no more than 0.25 for the second.

MHEC and RPRI cannot be ordered by enrichment ratio: no more than 0.25 for the first, no more than 0.25 for the second.

YWRW and YYCA cannot be ordered by enrichment ratio: no more than 0.25 for the first, no more than 0.25 for the second.

IMIF and YPNS cannot be ordered by enrichment ratio: no more than 0.25 for the first, no more than 0.25 for the second.

APHQ and ELCN cannot be ordered by enrichment ratio: no more than 0.25 for the first, no more than 0.25 for the second.

DCHK and MLAP cannot be ordered by enrichment ratio: no more than 0.25 for the first, no more than 0.25 for the second.

MNTA and NDWT cannot be ordered by enrichment ratio: no more than 0.25 for the first, no more than 0.25 for the second.

QPPY and LFTS cannot be ordered by enrichment ratio: no more than 0.25 for the first, no more than 0.25 for the second.

HWCL and SWFD cannot be ordered by enrichment ratio: no more than 0.25 for the first, no more than 0.25 for the second.

IDPR and AVNP cannot be ordered by enrichment ratio: no more than 0.25 for the first, no more than 0.25 for the second.

PATC and NVLI cannot be ordered by enrichment ratio: no more than 0.25 for the first, no more than 0.25 for the second.

MVRP and FRST cannot be ordered by enrichment ratio: no more than 0.25 for the first, no more than 0.25 for the second.

FCCF and QPFS cannot be ordered by enrichment ratio: no more than 0.25 for the first, no more than 0.25 for the second.

WQRV and ETRS cannot be ordered by enrichment ratio: no more than 0.25 for the first, no more than 0.25 for the second.

DGDP and ISFF cannot be ordered by enrichment ratio: no more than 0.25 for the first, no more than 0.25 for the second.

TQRD and KATQ cannot be ordered by enrichment ratio: no more than 0.25 for the first, no more than 0.25 for the second.

SEDK and GMYP cannot be ordered by enrichment ratio: no more than 0.25 for the first, no more than 0.25 for the second.

FASD and KLCF cannot be ordered by enrichment ratio: no more than 0.25 for the first, no more than 0.25 for the second.

DLSK and NNHQ cannot be ordered by enrichment ratio: no more than 0.25 for the first, no more than 0.25 for the second.

HHQK and LPVC cannot be ordered by enrichment ratio: no more than 0.25 for the first, no more than 0.25 for the second.

MWQQ and PVIP cannot be ordered by enrichment ratio: no more than 0.25 for the first, no more than 0.25 for the second.

WCKR and VMKQ cannot be ordered by enrichment ratio: no more than 0.25 for the first, no more than 0.25 for the second.

QLIS and GTWF cannot be ordered by enrichment ratio: no more than 0.25 for the first, no more than 0.25 for the second.

TPRA and SRNR cannot be ordered by enrichment ratio: no more than 0.25 for the first, no more than 0.25 for the second.

First: FNFF
Second: YYMQ
The enrichment ratio of the first is higher: 1 for the first, no more than 0.25 for the second.

HKYI and VDWM cannot be ordered by enrichment ratio: no more than 0.25 for the first, no more than 0.25 for the second.

TWTM and DSRA cannot be ordered by enrichment ratio: no more than 0.25 for the first, no more than 0.25 for the second.

SIDH and DMAP cannot be ordered by enrichment ratio: no more than 0.25 for the first, no more than 0.25 for the second.

APNL and PCHT cannot be ordered by enrichment ratio: no more than 0.25 for the first, no more than 0.25 for the second.

AQRF and QTTY cannot be ordered by enrichment ratio: no more than 0.25 for the first, no more than 0.25 for the second.

VLVR and DLNR cannot be ordered by enrichment ratio: no more than 0.25 for the first, no more than 0.25 for the second.

IRRK and YANG cannot be ordered by enrichment ratio: no more than 0.25 for the first, no more than 0.25 for the second.

Compared with KNMQ, TMTL is higher in enrichment ratio: no more than 0.25 for the first, 20.9 for the second.

GSWL and WFMF cannot be ordered by enrichment ratio: no more than 0.25 for the first, no more than 0.25 for the second.

Going from GCLG to RYKC, the enrichment ratio falls from 14.9 to no more than 0.25.

TSGR and PPAF cannot be ordered by enrichment ratio: no more than 0.25 for the first, no more than 0.25 for the second.

FDFP and KHMR cannot be ordered by enrichment ratio: no more than 0.25 for the first, no more than 0.25 for the second.

RFER and HDGD cannot be ordered by enrichment ratio: no more than 0.25 for the first, no more than 0.25 for the second.

RTPD and NVTS cannot be ordered by enrichment ratio: no more than 0.25 for the first, no more than 0.25 for the second.

GRMC and FFNY cannot be ordered by enrichment ratio: no more than 0.25 for the first, no more than 0.25 for the second.

First: HGPW
Second: SEIF
The enrichment ratio of the first is lower: 2.35 for the first, 8.09 for the second.

YEWQ and KGSI cannot be ordered by enrichment ratio: no more than 0.25 for the first, no more than 0.25 for the second.

HSGY and CLLC cannot be ordered by enrichment ratio: no more than 0.25 for the first, no more than 0.25 for the second.

DKTG and LRFW cannot be ordered by enrichment ratio: no more than 0.25 for the first, no more than 0.25 for the second.

Going from MESA to TLKS, the enrichment ratio falls from 1.15 to no more than 0.25.

DYDN and PSFA cannot be ordered by enrichment ratio: no more than 0.25 for the first, no more than 0.25 for the second.

GRDE and VWVC cannot be ordered by enrichment ratio: no more than 0.25 for the first, no more than 0.25 for the second.

First: HGLI
Second: THLL
The enrichment ratio of the first is lower: 13.3 for the first, 14 for the second.

INTS and PKDW cannot be ordered by enrichment ratio: no more than 0.25 for the first, no more than 0.25 for the second.

EKLI and ISAP cannot be ordered by enrichment ratio: no more than 0.25 for the first, no more than 0.25 for the second.

For RACV, the enrichment ratio was no more than 0.25.

— a collection of fitness landscapes (doi:10.1126/science.1257360)
